Results: PubChem BioAssay AID1345083 (National Center for Advancing Translational Sciences (NCATS), 2018)
Out of some 94,000 compounds screened, about 6,200 (6.6%) were called active. Inconclusive results, whose numbers are uncertain, are shown with a selection of clear calls. The call rests on the fitted dose curve; in most records, active means well fitted inhibition curve with a large enough effect; inconclusive means small, poorly fitted or top-dose-only effect; inactive means flat fitted curve, though single readings scatter. Where the call is inconclusive, the potency comes from a doubtful curve fit.

test: Cytotoxic Profiling in HEK 293 Cell Line of Diverse Libraries Using Quantitative High-Throughput Screening; details: HEK 293 viability, ATP luminescence (CellTiter-Glo), 48-72 h; activity change, negative = cytotoxicity: at 115 µM (top of the series) unless noted; series mostly up to 115 µM; further: nearly all actives have a fitted effect of over 60% in size
Method in brief: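 HEK 293 cells seeded at 250 cells/well were exposed to compound for 48 or 72 hr at 37 degree Celsius. Viability taken as ATP content by CellTiter-Glo luminescence.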
On the % scale 0 is the no-effect control and ±100 the full control effect; potency means the concentration at half of the fitted maximal effect; tags describe the fitted curve by direction and shape.

Row | Structure (SMILES) | Potency | activity change, negative = cytotoxicity | outcome
1 | O=C(c1ccccc1F)N1CCC(Cc2nc(C3CCOCC3)no2)CC1 | inconclusive: 39.8 µM [inhibitor, partial curve, poor fit] |  | 
2 | O=C(N[C@@H]1C[C@H](Cn2cc(CN3CCS(=O)(=O)CC3)nn2)[C@@H](O)[C@H]1O)c1cncnc1 |  | inactive: -6.54% | 
3 | O=C(O)C1CCc2nnc(C3CCN(C(=O)c4cccc(Cl)c4)C3)n21 (centres undefined) | inconclusive: 89.1 µM [inhibitor, single point] |  | 
4 | CC1(c2cccnc2)N(CC2CC2)C(=O)OC12CCN(C(=O)c1ccc(Oc3ccccc3)cc1)CC2 (centres undefined) | inconclusive: 50.1 µM [inhibitor, partial curve, poor fit] |  | 
5 | CCc1ccccc1S(=O)(=O)N1CCC(n2cnnc2CC)CC1 |  | inactive: -1.27% | 
6 | CN(C(=O)c1ccc2oc(CCc3ccccc3)nc2c1)C1CCOC1 (centres undefined) | inconclusive: 79.4 µM [inhibitor, single point] |  | 
7 | Cc1ccsc1CN1CCOc2cc([S+](=O)([O-])N(C)C)ccc2C1 | inconclusive: 56.2 µM [inhibitor, partial curve, poor fit] |  | 
8 | CCCCCCNC(=O)Cc1csc2nc(C)c(-c3cc(C)n(-c4ccc(F)cc4)n3)c(=O)n12 | inconclusive: 89.1 µM [inhibitor, single point] |  | 
9 | O=C(c1cccc(Br)c1)N1CCC(n2c(=O)[nH]c3ccccc32)CC1 | inconclusive: 89.1 µM [inhibitor, single point] |  | 
10 | COc1ccc(C(=O)N[C@@H]2CN(Cc3ccccn3)C[C@H]2CN(C)C)cc1F | inconclusive: 50.1 µM [inhibitor, partial curve, poor fit] |  | 
11 | CC(C)c1nc(C(=O)N(C)C2CCCN(CCCc3ccccc3)C2)cs1 (centres undefined) | inconclusive: 22.4 µM [inhibitor, full curve, poor fit] |  | 
12 | COc1ccccc1-c1ccc(CN2CCCCC2C(=O)NCc2ccc(F)cc2F)cc1 (centres undefined) | active: 20 µM |  | 
13 | COCCNC(=O)C1CCCCN1Cc1ccc(-c2ccsc2)cc1 (centres undefined) | inconclusive: 63.1 µM [inhibitor, partial curve, poor fit] |  | 
14 | O=C(Nc1ccccc1)N1CCN(C(=O)c2nc3cccnc3n(Cc3ccccc3)c2=O)CC1 |  | inactive: -11.5% | 
15 | CSc1ccc(C(=O)N2CC(=O)N(Cc3ccc(Cl)cc3)CC(O)C2)cc1 (centres undefined) | inconclusive: 56.2 µM [inhibitor, partial curve, poor fit] |  | 
16 | Cc1cn2nc(C(=O)NCc3cccc(Cl)c3)cc2c(N(C)Cc2ccccc2)n1 | inconclusive: 39.8 µM [inhibitor, full curve, poor fit] |  | 
17 | COCCC(=O)N1CCC2(CC1)N(Cc1cccc(F)c1)C(=O)CS2=O (centres undefined) |  | inactive: -0.364% | 
18 | O=C(NC1CCN(c2ccc3nnc(-c4ccccc4)n3n2)C1)c1ccccc1Cl (centres undefined) | active: 35.5 µM |  | 
19 | CC(C)Oc1ccc2c(NC(=O)CN3CCCC3=O)nn(Cc3ccccc3)c2c1 | inconclusive: 63.1 µM [inhibitor, partial curve, poor fit] |  | 
20 | O=C(NCCCO)C1CC(=O)N(c2n[nH]c3cc(Br)ccc23)C1 (centres undefined) | inconclusive: 44.7 µM [inhibitor, partial curve, poor fit] |  | 
21 | COCCN1Cc2cc(F)ccc2N(CC(O)Cc2ccccc2)CCC1=O (centres undefined) | inconclusive: 89.1 µM [inhibitor, single point] |  | 
22 | CC(=O)NC1(C)CCCN(Cc2cc(-c3cccc(C(F)(F)F)c3)cs2)C1 (centres undefined) | inconclusive: 79.4 µM [inhibitor, partial curve, poor fit] |  | 

Row | Structure (SMILES) | Potency | activity change, negative = cytotoxicity | outcome
23 | COc1ccc2c(c1)C(COCc1ccc(C(=O)O)cc1)=CC(C)(C)CO2 |  |  | inactive
24 | Cc1ccccc1NC(=O)N1C[C@@H](F)C[C@H]1C(=O)N1CCCCC1 | inconclusive: 100 µM [inhibitor, single point] |  | 
25 | O=C(Cc1ccc(OC(F)(F)F)cc1)N1CCC(c2n[nH]c(=O)n2-c2ccccc2)CC1 |  | inactive: 3.93% | 
26 | Cn1ccc2c(C(=O)NCCc3ccccn3)nc(-c3cccc(N4CCOCC4)c3)cc21 | inconclusive: 50.1 µM [inhibitor, partial curve, poor fit] |  | 
27 | COC[C@]1(O)CCN(C(=O)c2c(F)ccc(OC)c2F)CC1(C)C | inconclusive: 89.1 µM [inhibitor, single point] |  | 
28 | O=C(CCc1ccccc1)N1CCC2(CC1)NC(=O)N(c1ccccc1)N2 | inconclusive: 31.6 µM [inhibitor, full curve, poor fit] |  | 
29 | COc1ccccc1C1NC(=O)N(CC(=O)N2CCCC2)C2=C1C(=O)OC2 (centres undefined) |  |  | inactive
30 | O=C(CCCc1ccccc1)N1CCC(C2CCNC2)CC1 (centres undefined) |  | inactive: -19.1% | 
31 | CC(C)c1ccc(CC(=O)N2CCCc3ncc(C(=O)Nc4ccc5[nH]ccc5c4)cc32)cc1 | active: 35.5 µM |  | 
32 | COc1ccc(C2=NOC3(CCN([S+](=O)([O-])c4cccc(C(F)(F)F)c4)C3)C2)cc1 (centres undefined) | inconclusive: 39.8 µM [inhibitor, full curve] |  | 
33 | COc1ccc(Nc2ccnc(N3CCCC(C(=O)NCC(F)(F)F)C3)n2)cc1 (centres undefined) | inconclusive: 50.1 µM [inhibitor, partial curve, poor fit] |  | 
34 | CCC(C(=O)Nc1ccc2c(c1)CN(Cc1ccccc1Cl)C(=O)C(C)O2)c1ccccc1 (centres undefined) | inconclusive: 56.2 µM [inhibitor, partial curve, poor fit] |  | 
35 | O=C(NCc1cccc(C(F)(F)F)c1)c1ccc2nnc(Cc3ccc(Cl)cc3)n2c1 | active: 31.6 µM |  | 
36 | OC[C@@H]1O[C@H](CN(Cc2cccc(Cl)c2)Cc2cccc(Cl)c2)[C@H](N2CCN(c3ccccn3)CC2)[C@@H]1O | inconclusive: 50.1 µM [inhibitor, partial curve, poor fit] |  | 
37 | CNC(=O)c1cc(C2CC2)nc2c1c(C1CCCN(C(=O)c3ccccc3Cl)C1)nn2C (centres undefined) |  | inactive: -11.4% | 
38 | CCCC(O)CN1CCC(=O)N(Cc2ccccc2)Cc2cc(OC)ccc21 (centres undefined) | inconclusive: 35.5 µM [inhibitor, full curve] |  | 
39 | CCOC(=O)c1cccc(NC(=O)c2ccc3c(c2)N(CC)C2CCCCCN2C3=O)c1 (centres undefined) | inconclusive: 15.8 µM [inhibitor, full curve, poor fit] |  | 
40 | Cc1ccc(C(=O)NCc2cccnc2N(C)C2CCCCC2)cn1 | inconclusive: 44.7 µM [inhibitor, partial curve] |  | 
41 | COc1ccc(CN2CC[C@H](c3nc(C)no3)[C@H](NC(=O)C3CC3)C2)cc1 |  | inactive: 1.96% | 
42 | Cc1cccc(C)c1Oc1ncccc1CNC(=O)CCN1CCCCO1 |  | inactive: 3.28% | 
43 | C[C@@H]1C(=O)O[C@H]2[C@H]1CC[C@@]1(C)Cc3sc(NC(=O)c4c(Cl)cccc4Cl)nc3[C@@H](C)[C@H]21 | inconclusive: 31.6 µM [inhibitor, partial curve, poor fit] |  | 
44 | CCCn1cnc2c1CN(S(=O)(=O)c1ccccc1)[C@H](C(=O)OC)C2 |  | inactive: -3.16% [at 172 µM] | 

Row | Structure (SMILES) | Potency | activity change, negative = cytotoxicity | outcome
45 | N#Cc1cccc(CN2CC[C@@H]3OCC(=O)N(Cc4ccc(O)cc4)[C@H]3CC2)c1 | inconclusive: 100 µM [inhibitor, partial curve] |  | 
46 | O=C1COc2ccc(Nc3ccc(C(F)(F)F)cc3)nc2CN1 | inconclusive: 100 µM [inhibitor, partial curve] |  | 
47 | COc1ccc(CNC(=O)C[C@@H]2CCNC[C@@H]2Cc2cc(-c3ccc(OC)cc3)on2)cc1 | active: 39.8 µM |  | 
48 | N#CC1CCN(C(=O)C2CCN(c3nccc(Nc4ccccc4F)n3)CC2)CC1 | inconclusive: 50.1 µM [inhibitor, partial curve, poor fit] |  | 
49 | Fc1ccc(NC2CCCN(Cc3ccc(C#Cc4cncnc4)cc3)C2)cc1F (centres undefined) | inconclusive: 50.1 µM [inhibitor, partial curve, poor fit] |  | 
50 | CCOCCNC(=O)c1ccc2nnc(C3CCOCC3)n2c1 |  | inactive: 4.72% [at 172 µM] | 
51 | Cc1cc(Cn2cc3c4c(cccc42)[C@H](CC(C)C)N[C@H](C(=O)O)C3)no1 |  | inactive: -11.4% [at 172 µM] | 
52 | O=C(Nc1ccccc1F)N1CCC2(CCC2N2CCOCC2)CC1 (centres undefined) |  | inactive: 2.56% | 
53 | CNC(=O)CCn1ncc2cc(OCc3ccccc3-c3ccc(OC)cc3)ccc21 | active: 100 µM |  | 
54 | CC(=O)N1Cc2ccccc2OC2(CCN(C(=O)c3ccc(Cl)cc3)CC2)C1 |  | inactive: -10.4% | 
55 | CCOC(=O)c1[nH]ncc1CN1CCCC(Cc2ccc(F)cc2F)(C(=O)OCC)C1 (centres undefined) | inconclusive: 44.7 µM [inhibitor, partial curve] |  | 
56 | OCCc1ccc(Nc2cnc3ccc(-c4ccc(F)cc4)nn23)cc1 | inconclusive: 89.1 µM [inhibitor, partial curve] |  | 
57 | COCCn1cc2c3c(cccc31)CN(C(=O)CCc1ccccc1OC)CC2 | inconclusive: 70.8 µM [inhibitor, single point] |  | 
58 | CCC(CC)C(=O)N1CCC(N2CCCC(C(=O)NCc3ccccc3)C2)CC1 (centres undefined) |  | inactive: -6.43% | 
59 | O=C(c1ccccc1OC1CN(Cc2ccc(F)c(F)c2)C1)N1CCOCC1 | inconclusive: 56.2 µM [inhibitor, partial curve, poor fit] |  | 
60 | CCN(Cc1cnn(CC)c1)C(=O)CN1C(=O)C2(CCCCC2)C1c1ccccc1 (centres undefined) | inconclusive: 50.1 µM [inhibitor, partial curve, poor fit] |  | 
61 | CCN(CC)C(=O)N1CC(Oc2ccc(-c3nc(C)no3)cc2)C1 | inconclusive: 31.6 µM [inhibitor, partial curve] |  | 
62 | COc1ccccc1-c1cc(C(=O)NC2CCCCC2)c2cnn(C)c2n1 |  | inactive: -26.6% | 
63 | Cc1ccc(CNC(=O)N2CCc3nc(-c4ccccc4)[nH]c3C2)cc1 | inconclusive: 79.4 µM [inhibitor, partial curve, poor fit] |  | 
64 | Cc1ccc(C(=O)NC2CCN(C(=O)c3cc4c(=O)[nH]c(C)cn4n3)CC2)cc1 |  | inactive: -16.8% | 
